Growth of fresh clinical P. falciparum isolates by hypoxanthine uptake over 42 h; for most isolates 1.6-1,647 nM mefloquine, 0.044-87 nM artesunate, 10-10,256 nM chloroquine, 2.4-236 nM lumefantrine. EC50, lower = more sensitive; slope from the same fit, higher = steeper. No active / inactive call. Fits with a coefficient of variation above 100% are not listed here; 15-28% of fits exceed 15%. Isolates are numbered anew.
Legend:
[1] = compound: T1, CCCCN(CCCC)CC(O)c1cc(Cl)cc2c1-c1ccc(Cl)cc1/C2=C/c1ccc(Cl)cc1 [lumefantrine]
Protocol: (§1)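 Hypoxanthine uptake by fresh isolates, duplicate serial dilutions, 24 h of drug plus 18 h after the label; sigmoid fit per isolate.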

[2] = compound: T2, CCN(CC)CCCC(C)Nc1ccnc2cc(Cl)ccc12 [chloroquine]
Protocol: as §1

[3] = compound: T3, C[C@H]1[C@H](OC(=O)CCC(=O)O)O[C@@H]2O[C@@]3(C)CC[C@H]4[C@H](C)CC[C@@H]1[C@@]24OO3 [artesunate]
Protocol: as §1

[4] = compound: T4, OC(c1cc(C(F)(F)F)nc2c(C(F)(F)F)cccc12)C1CCCCN1 [mefloquine]
Protocol: as §1

[5] = compound: T1, lumefantrine; assay: slope of the dose-response curve (dimensionless); higher = steeper concentration-effect curve
Protocol: as §1

[6] = compound: T2, chloroquine; assay: as above
Protocol: as §1

[7] = compound: T3, artesunate; assay: as above
Protocol: as §1

[8] = compound: T4, mefloquine; assay: as above
Protocol: as §1

Test System | EC50 of parasite growth [1] | EC50 of parasite growth [2] | EC50 of parasite growth [3] | EC50 of parasite growth [4] | slope [5] | slope [6] | slope [7] | slope [8]
Plasmodium falciparum isolate 307 (pfmdr1 allele: 86N, 1042N, pfmdr1 copies: 1) | 0.0383 µg/mL | 0.0829 µg/mL | 0.001 µg/mL | 0.0355 µg/mL | 2.01 | 5.06 | 5.63 | 1.91
Plasmodium falciparum isolate 297 (pfmdr1 allele: 86N, 1042N, pfmdr1 copies: 1) | 0.0148 µg/mL | 0.0856 µg/mL | 0.000308 µg/mL | 0.0102 µg/mL | 2.02 | 4.9 | 3.26 | 1.69
Plasmodium falciparum isolate 64 (pfmdr1 allele: 86N, 1042N, pfmdr1 copies: 3) | 0.04 µg/mL | 0.114 µg/mL | 0.00103 µg/mL | 0.0484 µg/mL | 2.73 | 2.86 | 2.93 | 2.94
Plasmodium falciparum isolate 303 (pfmdr1 allele: 86N, 1042N, pfmdr1 copies: 1) | 0.0181 µg/mL | 0.0325 µg/mL | 0.000302 µg/mL | 0.022 µg/mL | 2.89 | 3.39 | 6.02 | 2.32
Plasmodium falciparum isolate 463 (pfmdr1 allele: 86N, 1042N, pfmdr1 copies: 1) | 0.0181 µg/mL | 0.124 µg/mL | 0.000404 µg/mL | 0.0274 µg/mL | 2.49 | 5.67 | 6.39 | 3.53
Plasmodium falciparum isolate 85 (pfmdr1 allele: 86N, 1042N, pfmdr1 copies: 1) | 0.00366 µg/mL | 0.349 µg/mL | 0.000486 µg/mL | 0.00516 µg/mL | 1.89 | 2.69 | 2.33 | 1.78
Plasmodium falciparum isolate 17 (pfmdr1 allele: 86N, 1042N, pfmdr1 copies: 1) | 0.0379 µg/mL | 0.0933 µg/mL | 0.0006 µg/mL | 0.0262 µg/mL | 2.51 | 3.32 | 6.92 | 2.51
Plasmodium falciparum isolate 13 (pfmdr1 allele: 86N, 1042N, pfmdr1 copies: 1) | 0.00649 µg/mL | 0.0696 µg/mL | 0.000552 µg/mL | 0.0144 µg/mL | 2.75 | 3.88 | 5.82 | 5.13
Plasmodium falciparum isolate 94 (pfmdr1 allele: 86N, 1042N, pfmdr1 copies: 1) | 0.0331 µg/mL | 0.277 µg/mL | 0.00138 µg/mL | 0.042 µg/mL | 1.71 | 4.5 | 5.56 | 3.19
Plasmodium falciparum isolate 189 (pfmdr1 allele: 86N, 1042N, pfmdr1 copies: 2) | 0.0844 µg/mL | 0.0524 µg/mL | 0.000705 µg/mL | 0.0805 µg/mL | 3.2 | 2.9 | 7.83 | 2.86
Plasmodium falciparum isolate 394 (pfmdr1 allele: 86N, 1042N, pfmdr1 copies: 1) | 0.0267 µg/mL | 0.0917 µg/mL | 0.00074 µg/mL | 0.0339 µg/mL | 2.87 | 6.83 | 6.69 | 3.45
Plasmodium falciparum isolate 237 (pfmdr1 allele: 86N, 1042N, pfmdr1 copies: 1) | 0.00551 µg/mL | 0.222 µg/mL | 0.000278 µg/mL | 0.0163 µg/mL | 2.7 | 5.29 | 5.71 | 3.11
